Test: Clinical PK of anti-human CD39 antibody in dose escalation
Format: in vivo
Settings: 40 mg/kg Q3W
Method: After the completion of the dose escalation portion of the study, the totality of the PK data was used for PK modeling for the RP2D. Based on simulations, it was determined that a loading dose of 40 mg/kg one week prior to Cycle 1, Day 1 dosing of 30 mg/kg Q3W or 20 mg/kg Q2W will provide a minimal functional trough level in greater than 80% of subjects before Cycle 1, Day 1 and in cycles thereafter.

B1: anti-human CD39 antibody: Antibody with VH SEQ ID NO: 25, VL SEQ ID NO: 29; heavy chain SEQ ID NO: 33, light chain SEQ ID NO: 34 (antibody)
heavy: QVQLVQSGAEVKKPGASVKVSCKASGYTFKSYEMHWVRQAPGQGLEWMGRINPSVGSTWYAQKFQGRVTMTRDTSTSTVYMELSSLRSEDTAVYYCARGKREGGTEYLRKWGQGTLVTVSSASTKGPSVFPLAPCSRSTSESTAALGCLVKDYFPEPVTVSWNSGALTSGVHTFPAVLQSSGLYSLSSVVTVPSSSLGTKTYTCNVDHKPSNTKVDKRV[human IgG4 Fc with S228P (EU numbers) cut from this listing]
light: EIVLTQSPGTLSLSPGERATLSCRASQSVASSYLAWYQQKPGQAPRLLIYGASNRHTGIPDRFSGSGSGTDFTLTISRLEPEDFAVYYCQQYHNAITFGGGTKVEIKRTVAAPSVFIFPPSDEQLKSGTASVVCLLNNFYPREAKVQWKVDNALQSGNSQESVTEQDSKDSTYSLSSTLTLSKADYEKHKVYACEVTHQGLSSPVTKSFNRGEC
  trough level versus minimal functional level from preclinical human functional assays: achieved a minimal functional trough level

Reference: patent US20250188165A1, “COMBINATIONS WITH AN ANTI HUMAN CD39 ANTIBODY, AN ANTI HUMAN PD-1 ANTIBODY, AND CHEMOTHERAPY IN GASTRIC CANCER” (Trishula Therapeutics Inc, priority 2022, published 2025)
